From PubChem BioAssay AID1347120 (National Center for Advancing Translational Sciences (NCATS), 2019)
About 930 (0.24%) of roughly 390,000 compounds were called active. The inconclusive results got no clear call from the source; some entries with a clear call stand among them for comparison. Calls follow the shape of the dose curve; as a rule, active = well fitted activation curve with a large enough effect; inconclusive = small, poorly fitted or top-dose-only effect; inactive = no such curve, though single readings can be large or run the other way. A potency beside an inconclusive call is a rough fit, not a confirmed value.

Assay: qHTS for Suppressors of FUS Proteinopathy: Primary screen using FUS-linked yeast assay; also: nearly all actives have a fitted effect of over 55% in size;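 as to growth rescue (activation): plate controls were DMSO vehicle for no effect and reference control for full effect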
Details: S. cerevisiae FUS-expressing, OD600, 24 h; Potency: growth rescue; growth rescue (activation): at 76.6 µM (top of the series)
Procedure, shortened: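 Quantitative HTS measuring growth restoration of FUS-toxic yeast. Galactose-induced cells (OD 0.005) were exposed 24hr at 30C to compounds at several concentrations, then absorbance at 600 nm was recorded.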
Potency is read from the fitted curve at half-maximal effect; tags tell the direction and shape of the fitted curve.

**Q.** Which “growth rescue (activation)” value does the source give for `Cc1cccc(-n2ncc3c(NNC(=O)c4ccccc4Cl)ncnc32)c1` here?
**A.** inactive: -21.1%

**Q.** Which Potency does the source give for `CCOC(=O)[C@@]12CCCC3=C1N(CCC3)C(=O)[C@H]2CC(=O)N1CCC(c2ccccc2)CC1` here?
**A.** inconclusive: 44.7 µM [activator, single point]

**Q.** With `CN1CCN(C(=O)c2ccc3c(c2)N(Cc2ccc(C(F)(F)F)cc2)C(=O)c2ccccc2S3)CC1` as the compound, how does the Potency read?
**A.** inconclusive: 7.08 µM [activator, partial curve]

**Q.** With `COc1cc(CNC(=O)c2cc3n(n2)CCCN(Cc2cccc(F)c2)C3=O)cc(OC)c1OC` as the compound, how does the Potency read?
**A.** inconclusive: 50.1 µM [activator, partial curve, poor fit]

**Q.** For `CCOC(=O)CSc1nnc(CSc2nc3sc4c(c3c(=O)[nH]2)CCCC4)n1-c1ccccc1`, which Potency is on record?
**A.** inconclusive: 35.5 µM [activator, single point]

**Q.** For `O=C(NCc1ccccc1)N1CCN(Cc2nc3ccccc3c(=O)[nH]2)CC1`, which “growth rescue (activation)” value is on record?
**A.** inactive: -4.71%

**Q.** For `COc1ccc(S(=O)(=O)N(CC(=O)N/N=C/c2cccs2)c2ccc(C)cc2)cc1OC`, which Potency is on record?
**A.** inconclusive: 35.5 µM [activator, single point]

**Q.** For `O=C(Nc1ccc2[nH]c3c(c2c1)CCCC3)c1ccco1`, which Potency is on record?
**A.** inconclusive: 50.1 µM [activator, single point]

**Q.** With `CCOc1ccc(NC(=O)CSc2nc3c(c(=O)n2-c2ccccc2OC)SCC3)cc1` as the compound, how does the Potency read?
**A.** inconclusive: 35.5 µM [activator, single point]

**Q.** Which growth rescue (activation) does the source give for `C=CCn1c(SCC(=O)c2cc(C)n(CC3CCCO3)c2C)nnc1-c1ccccc1` (centres undefined) here?
**A.** inconclusive: 80.3% [activator]

**Q.** For `Cc1cc(C)c2nc3sc(C(=O)N4CCOCC4)c(N)c3cc2c1`, which Potency is on record?
**A.** inconclusive: 22.4 µM [activator, partial curve]

**Q.** Which “growth rescue (activation)” value does the source give for `N#C/C(=C\c1c(N2CCCCC2)nc2ccccn2c1=O)C(=O)NC1CCS(=O)(=O)C1` (centres undefined) here?
**A.** inactive: 8%

**Q.** With `Cc1cc(NC(=O)c2cc(-c3ccccc3Cl)nc3ccccc23)no1` as the compound, how does the “growth rescue (activation)” value read?
**A.** inactive: 28.8%

**Q.** For `Cc1ccc2c(=O)cc(C(=O)N(Cc3ccc(C(C)(C)C)cc3)C3CCS(=O)(=O)C3)oc2c1` (centres undefined), which Potency is on record?
**A.** inconclusive: 31.6 µM [activator, single point]

**Q.** Which Potency does the source give for `CCc1ccc(-c2cc(C(=O)N/N=C/c3c[nH]c4ccccc34)[nH]n2)cc1` here?
**A.** inconclusive: 35.5 µM [activator, partial curve, poor fit]

**Q.** For `COc1ccc(C2C(C#N)=C(C)NC3=C2C(=O)CC(C)(C)C3)c(OC)c1` (centres undefined), which “growth rescue (activation)” value is on record?
**A.** inactive: 9.97%

**Q.** With `CN(C(=O)COC(=O)CSCc1cccc(Cl)c1)c1c(N)n(Cc2ccccc2)c(=O)[nH]c1=O` as the compound, how does the Potency read?
**A.** inconclusive: 35.5 µM [activator, single point]

**Q.** For `COc1ccc(NC(=O)Nc2nnc(N3CCCC3)s2)cc1`, which “growth rescue (activation)” value is on record?
**A.** inactive: -20.6%

**Q.** With `Cc1cc(C)cc(N(CC(=O)NCCc2ccc(Cl)cc2)S(=O)(=O)c2c(C)noc2C)c1` as the compound, how does the “growth rescue (activation)” value read?
**A.** inactive: -7.52%

**Q.** For `O=C(CSc1nnc(-c2cccnc2)n1Cc1ccccc1)N1CCOCC1`, which “growth rescue (activation)” value is on record?
**A.** inactive: 4.94%

**Q.** With `Cc1cccc(N2CCN(C(=O)c3ccccn3)CC2C)c1` (centres undefined) as the compound, how does the “growth rescue (activation)” value read?
**A.** inactive: 11.5%

**Q.** With `COc1cc2c(C#N)c(N3CCCC3)nc(N)c2c(N)n1` as the compound, how does the Potency read?
**A.** inconclusive: 35.5 µM [activator, partial curve, poor fit]

**Q.** Which Potency does the source give for `O=C(CCCCl)NC(=S)Nc1ccc(CN2CCOCC2)cc1` here?
**A.** inconclusive: 50.1 µM [activator, single point]

**Q.** With `Cc1ccc(-n2ncc(C(=O)NCc3ccc4c(c3)OCO4)c2C2CCN(C(=O)OC(C)(C)C)CC2)c(C)c1` as the compound, how does the Potency read?
**A.** inconclusive: 20 µM [activator, partial curve, poor fit]

**Q.** With `CC(C)[C@@H]1OC(=O)[C@@H]2CCCN2C(=O)[C@H](C)OC(=O)[C@H](C)[C@@H](C(C)C)NC(=O)[C@@H]2CCCN2C(=O)[C@H]([C@H](C)Cc2ccccc2)NC(=O)[C@@H]2CCCN2C(=O)[C@@H](C(C)C)N(C)C1=O` as the compound, how does the Potency read?
**A.** inconclusive: 10 µM [activator, full curve, poor fit]

**Q.** With `C[C@H]1CN([C@@H](C)CO)S(=O)(=O)c2ccc(Br)cc2O[C@@H]1CN(C)C(=O)C1CCOCC1` as the compound, how does the “growth rescue (activation)” value read?
**A.** inactive: 5.31%

**Q.** Which Potency does the source give for `CN(CC(=O)Nc1ccc(F)cc1)C(=O)c1cccc(S(=O)(=O)N2CCN(c3ccccc3)CC2)c1` here?
**A.** inconclusive: 35.5 µM [activator, single point]

**Q.** Which Potency does the source give for `Cc1noc(C)c1NC(=O)N(C)C[C@H]1OCCCC[C@@H](C)Oc2ccc(NC(=O)Nc3ccc(F)cc3)cc2C(=O)N([C@@H](C)CO)C[C@H]1C` here?
**A.** inconclusive: 28.2 µM [activator, partial curve, poor fit]

**Q.** Which “growth rescue (activation)” value does the source give for `Clc1ccc(-c2nc(-c3cc4cc(Cl)ccc4o3)cs2)cc1` here?
**A.** inactive: -17.4%

**Q.** With `N#Cc1ccc(C(=O)NC2CCCCCCC2)cc1` as the compound, how does the “growth rescue (activation)” value read?
**A.** inactive: -7.67%

**Q.** Which Potency does the source give for `Cc1ccc(NS(=O)(=O)c2ccc(NC(=O)CN(c3cc([N+](=O)[O-])ccc3C)S(C)(=O)=O)cc2)c(C)c1` here?
**A.** inconclusive: 8.91 µM [activator, partial curve]

**Q.** With `NC(=O)C1=C[C@@H](c2csc3ccccc23)C[C@@H](OCc2ccc(CO)cc2)O1` as the compound, how does the Potency read?
**A.** inconclusive: 35.5 µM [activator, single point]

**Q.** Which Potency does the source give for `Cc1ccccc1NC(=O)COC(=O)c1ccc(C)c(S(=O)(=O)N2CCCCC2)c1` here?
**A.** inconclusive: 28.2 µM [activator, partial curve]

**Q.** For `Cc1cc(C)c2nc(N3C(=O)C(O)=C(C(=O)c4ccco4)C3c3ccco3)sc2c1` (centres undefined), which Potency is on record?
**A.** inconclusive: 39.8 µM [activator, single point]

**Q.** For `Cc1cc(C)c(N=Cc2c(O)n(-c3nccs3)c(=O)c3ccccc23)c(C)c1`, which Potency is on record?
**A.** inconclusive: 31.6 µM [activator, single point]

**Q.** Which Potency does the source give for `CC(=O)N1CCN(c2ccccc2NC(=O)COc2cc(C)ccc2C(C)C)CC1` here?
**A.** inconclusive: 28.2 µM [activator, single point]

**Q.** Which Potency does the source give for `COc1ccccc1CCNC(=O)C1CCC(=O)N(Cc2cccc(F)c2)C1` (centres undefined) here?
**A.** inconclusive: 11.2 µM [activator, single point]

**Q.** Which Potency does the source give for `COc1cccc(-c2cnc3c(NC=O)cc(-c4cc(C)c(O)c(C)c4)cn23)c1` here?
**A.** inconclusive: 44.7 µM [activator, single point]

**Q.** With `CC(CNC(=O)c1cnn(-c2ccc(F)cc2)c1-n1cccc1)c1ccccc1` (centres undefined) as the compound, how does the “growth rescue (activation)” value read?
**A.** inactive: 35.8%
